# According to PubChem BioAssay AID1458 (National Center for Advancing Translational Sciences (NCATS), 2008):
# In all, about 210,000 compounds went through this assay and about 5,900 (2.8%) were called active. Inconclusive results, whose numbers are uncertain, are shown with a selection of clear calls. Calls follow the shape of the dose curve; as a rule, active = well fitted activation curve with a large enough effect; inconclusive = small, poorly fitted or top-dose-only effect; inactive = no such curve, though single readings can be large or run the other way. Where the call is inconclusive, the potency comes from a doubtful curve fit.
# Test: qHTS Assay for Enhancers of SMN2 Splice Variant Expression; also: nearly all actives have a fitted effect of over 55% in size; as to activity change, positive = activation: % of control where 0% means no effect
# Details: HEK293 SMN2-luciferase splicing reporter, luminescence, 30-36 h; activity change, positive = activation: at 46.1 µM (top of the series)
# How it was run: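 HEK293 cells carry an SMN2 […]–luciferase reporter in which exon 7 inclusion puts luciferase in frame. Cells were plated 10-12 h before compound addition, then incubated 30-36 h at 37C. ONE-Glo luminescence was read; sodium butyrate at 4.5 mM final served as control.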
# Potency is read from the fitted curve at half-maximal effect; tags tell the direction and shape of the fitted curve.
SMILES,Potency,"activity change, positive = activation"
Fc1ccccc1CNC(=S)Nc1ccc(Cl)cc1,"inconclusive: 1.26 µM [activator, full curve, poor fit]",
CCOCCc1nnc(NC(=O)c2cccs2)s1,"inconclusive: 0.708 µM [activator, full curve, poor fit]",
CCOC(=O)c1sc(NC(=O)c2ccccc2)cc1C,active: 11.2 µM,
COc1ccc2oc(C)c(C(N)=O)c2c1,"inconclusive: 35.5 µM [activator, single point]",
Clc1cccc(N2CCN(c3nc4ccccc4c4nc(-c5cccnc5)nn34)CC2)c1,,inactive: -0.853%
CCCc1cc2c(=O)c(-c3ccc4c(c3)OCCO4)coc2cc1OS(C)(=O)=O,"inconclusive: 3.55 µM [activator, full curve]",
O=C(COC(=O)c1ccccc1Nc1ccc(SC(F)F)cc1)NC1CC1,"inconclusive: 35.5 µM [activator, single point]",
COc1ccccc1NC(=O)Cc1noc(CSc2cccc[n+]2[O-])n1,"inconclusive: 0.0316 µM [activator, full curve, poor fit]",
COc1cc(-c2nc(Cn3nnc(C(=O)Nc4ccccc4C)c3C)c(C)o2)cc(OC)c1OC,,inactive: 9.85%
COC(=O)CN(C)C1CC(=O)N(c2ccc(Cl)cc2)C1=O (configuration not stated),"inconclusive: 0.0224 µM [activator, full curve]",
COc1ccccc1-c1nc(NCc2cnc(C)cn2)c2ccccc2n1,"inconclusive: 35.5 µM [activator, single point]",
Cc1ccc2c3c([nH]c2c1C)-c1nonc1CC3,"inconclusive: 5.62 µM [activator, partial curve, poor fit]",
COc1ccc(S(=O)(=O)c2cn(CC(=O)Nc3ccccc3)c3ccc(Cl)cc3c2=O)cc1,,inactive: 3.77%
CCC(=O)Nc1cccc(NC(=O)c2ccc(Br)cc2)c1,"inconclusive: 11.2 µM [activator, partial curve]",
COc1ccc(CSc2nc3ccncc3n2Cc2nc(-c3ccc(OC)c(OC)c3)oc2C)cc1,"inconclusive: 11.2 µM [activator, partial curve]",
CCOC(=O)C1=C(C)OC(N)=C(C#N)C1c1ccsc1 (configuration not stated),"inconclusive: 0.794 µM [activator, full curve, poor fit]",
C(=N\Nc1ncnc2nc[nH]c12)/c1cccs1,active: 35.5 µM,
O=C(/C=C/c1ccccc1)NCCC1=CCCCC1,active: 11.2 µM,
COC(=O)c1ccccc1NC(=O)/C=C/C(=O)O,"inconclusive: 35.5 µM [activator, single point]",
O=C(NCCc1ccc(Cl)cc1)c1cnc2n(c1=O)CCS2,"inconclusive: 0.0224 µM [activator, full curve, poor fit]",
CC(=O)Oc1ccc(-c2ccc(C(=O)O)cc2)cc1,,inactive: 20.6%
CCN(CC)CCCSc1nc2ccccc2s1,"inconclusive: 11.2 µM [activator, single point]",
COc1ccc(NC(=O)c2ccc(C)o2)c([N+](=O)[O-])c1,"inconclusive: 14.1 µM [activator, partial curve]",
CC(C)(C)C(=O)COC(=O)c1cc2ccccc2cc1O,"inconclusive: 4.47 µM [activator, full curve, poor fit]",

SMILES,Potency,"activity change, positive = activation"
COc1ccc(Cn2c(SCC#N)nc3ccc(N4CCOCC4)cc3c2=O)cc1,"inconclusive: 12.6 µM [activator, partial curve, poor fit]",
Clc1cccc(-c2noc3ncnc(NC4CCCCC4)c23)c1,,inactive: 5.92%
c1ccc(CSc2nnc3ccc(-c4ccco4)nn23)nc1,"inconclusive: 17.8 µM [activator, single point]",
Cc1cc(NC(=O)c2nn3cccnc3c2Cl)no1,active: 10 µM,
CCOC(=O)C1=C(c2ccccc2)OC(N)=C(C#N)C1c1ccc(Cl)s1 (configuration not stated),"inconclusive: 0.0251 µM [activator, full curve, poor fit]",
O=C(Nc1cccc(-c2nnc(-c3ccccc3)o2)c1)C1CCCO1 (configuration not stated),,inactive: 29.6%
O=c1[nH]c(-c2ccccc2)cs1,"inconclusive: 7.94 µM [activator, partial curve, poor fit]",
COCCN(C(=S)Nc1cc(C)ccc1C)C(C)c1cccnc1 (configuration not stated),"inconclusive: 0.0141 µM [activator, full curve, poor fit]",
COc1ccc(Cc2nc(-c3ccccn3)no2)cc1,"inconclusive: 17.8 µM [activator, single point]",
CCOC(=O)C1C(=O)NC(c2ccccc2)=NC1c1ccc(Br)cc1 (configuration not stated),,inactive: 3.07%
O=S1(=O)N=C(N=Nc2c(O)[nH]c3ccccc23)c2ccccc21,,inactive: -16.1%
CC(C)c1ccc(NC(=S)NNC(=O)c2cccs2)cc1,"inconclusive: 5.62 µM [activator, partial curve]",
COc1cc(=O)n(C)c2cc(N(C)C)ccc12,"inconclusive: 22.4 µM [activator, partial curve, poor fit]",
COc1ccc(C(=O)Nc2onc3c2CCCC3)cc1,active: 0.794 µM,
CCOc1ccc(-c2nc(C#N)c(NCc3ccc4c(c3)OCO4)o2)cc1,"inconclusive: 35.5 µM [activator, single point]",
COc1cccc(-c2noc(-c3ccc(Cl)nc3)n2)c1,"inconclusive: 28.2 µM [activator, single point]",
Cc1ccc(CN2CCN(CC(=O)NC(C)c3ccc4c(c3)OCCO4)C2=O)cc1 (configuration not stated),,inactive: -15.6%
Cc1cc(NC(=O)c2ccc(F)cc2)n(-c2ccccn2)n1,,inactive: -18.4%
COc1cc2c(cc1OC)C1(CCCC1)C(N)=C2C#N,"inconclusive: 12.6 µM [activator, partial curve]",
CN(c1ccc(O)cc1)c1nc(-c2ccccc2)cs1,"inconclusive: 35.5 µM [activator, single point]",
Cc1ccc(S(=O)(=O)N2CCCCC2)cc1NC(=O)COC(=O)CNC(=O)c1cc(Cl)cc([N+](=O)[O-])c1,"inconclusive: 5.62 µM [activator, single point]",
Cc1[nH]c2ccccc2c1C(=O)CSC(=S)N(C)C1CCCCC1,,inactive: -1.48%
COc1ccc(-n2nc(C(=O)NCC(=O)N3CCN(c4ccccn4)CC3)c3ccccc3c2=O)cc1Cl,"inconclusive: 0.0562 µM [activator, full curve, poor fit]",
